Among the data in ChEMBL document CHEMBL5606458, “ASAP - ZIKV NS2B-NS3 protease fluorescence single point” (2024) are inhibition values, retold here.

Hit rate of the full screen: of about 2,700 compounds, about 160 (5.9%) showed an effect of 50% or more. This is one part of the list.

This assay addresses Nonstructural protein 3 (Zika virus) (UniProt A0A024AXB9).
Where [1] appears, read: PRVABC59, Concentration 50.0 uM, Number of replicates 1.0.
The mark [2] stands for this setting: PRVABC59, Concentration 15.0 uM, Number of replicates 1.0.
Setting [3] is: PRVABC59, Concentration 10.0 uM, Number of replicates 1.0.

Sequence of UniProt A0A024AXB9 (A0A024AXB9 as listed by the source): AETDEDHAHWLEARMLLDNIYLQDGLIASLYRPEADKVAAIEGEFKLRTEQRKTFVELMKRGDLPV

For orientation: inhibition means the drop in the measured response relative to a control, in per cent. For the compound `O=Cc1ccc(N2CCC(C(=O)N3CCNC(=O)C34CCCCC4)CC2)cc1`, under setting [1], the inhibition is 25.5%.
For the compound `CC(C)(C)C(=O)Nc1cccc(C(=O)O)c1`, the inhibition by setting is: (PRVABC59, Concentration 49.5 uM, Number of replicates 2.0, Standard deviation 1.311724733674366 %) -3.38%; (PRVABC59, Concentration 99.01 uM, Number of replicates 2.0, Standard deviation 1.8264521879544453 %) -1.31%; (PRVABC59, Concentration 198.0 uM, Number of replicates 2.0, Standard deviation 2.1564588033659025 %) 0.879%.
Turning to `O=C(NC[C@@H](c1ccc(Cl)cc1)N1CCCC1)c1cc(Cl)ccc1NS(=O)(=O)c1ccc(Oc2ccccc2Cl)cc1`, under setting [2], the inhibition is 17.8%.
With `O=C(O)c1cnn(C2CCN(C(=O)c3ccnc4[nH]cnc34)CC2)c1`, the inhibition reads like this: (PRVABC59, Concentration 49.5 uM, Number of replicates 2.0, Standard deviation 0.4769423778532216 %) -0.77%; (PRVABC59, Concentration 99.01 uM, Number of replicates 2.0, Standard deviation 0.8068274680953539 %) -0.961%; (PRVABC59, Concentration 198.0 uM, Number of replicates 2.0, Standard deviation 0.6955409210557122 %) -0.489%.
Take `O=C(NC[C@@H]1CCCN2CCCC[C@H]12)c1cc(Cl)ccc1NS(=O)(=O)c1ccc(Oc2ccccc2Cl)cc1`: under setting [2], the inhibition was -5.27%.
`Nc1ccc(N2CCN(c3cc(C(F)(F)F)nc(-c4ccccc4)n3)CC2)cn1`: the inhibition (PRVABC59, Concentration 49.5 uM, Number of replicates 2.0, Standard deviation 1.5639731162498847 %) is 7.65%; the inhibition (PRVABC59, Concentration 99.01 uM, Number of replicates 2.0, Standard deviation 1.8998201100215497 %) was 8.51%; the inhibition (PRVABC59, Concentration 198.0 uM, Number of replicates 2.0, Standard deviation 0.2166111991108292 %) was 9.35%.
Regarding `O=C(Nc1n[nH]cc1Br)c1cc(Cl)ccc1NS(=O)(=O)c1ccc(Oc2ccccc2Cl)cc1`, under setting [2], the inhibition worked out at 38.1%.
`O=C(Nc1cc(F)c(F)cc1Br)c1cc(Cl)ccc1NS(=O)(=O)c1ccc(Oc2ccccc2Cl)cc1`: the inhibition under setting [2] was found to be 23.5%.
For `NCc1cccc(NC(=O)[C@@H](CCC(N)=O)NC(=O)OCc2ccccc2)c1`, the inhibition came out at 1.87% (PRVABC59, Concentration 49.5 uM, Number of replicates 2.0, Standard deviation 2.849846353356957 %); 4.03% (PRVABC59, Concentration 99.01 uM, Number of replicates 2.0, Standard deviation 1.8981689650842868 %); 9.89% (PRVABC59, Concentration 198.0 uM, Number of replicates 2.0, Standard deviation 1.5999597813824264 %).
Take `c1ccc2c([C@H]3CCN(Cc4ccncc4)C3)c[nH]c2c1`: the inhibition runs as follows: (PRVABC59, Concentration 49.5 uM, Number of replicates 2.0, Standard deviation 1.9328192800910937 %) 1.84%; (PRVABC59, Concentration 99.01 uM, Number of replicates 2.0, Standard deviation 2.6531402362507164 %) 5.16%; (PRVABC59, Concentration 198.0 uM, Number of replicates 2.0, Standard deviation 2.1917244623609684 %) 12.1%.
As for `O=C(N[C@H]1CC2(CCCC2)Oc2ccccc21)c1cc(Cl)ccc1NS(=O)(=O)c1ccc(Oc2ccccc2Cl)cc1`, the inhibition under setting [2] is 19.1%.
Take `O=C(c1cc(Cl)ccc1NS(=O)(=O)c1ccc(Oc2ccccc2Cl)cc1)N(CC(F)(F)F)CC(F)(F)F`: the inhibition under setting [2] was 15.7%.
Regarding `CCCCCC(=O)N[C@H](C(=O)Nc1ccc2[nH]ncc2c1)c1ccc(OCc2ccccc2)cc1`, the inhibition (PRVABC59, Concentration 49.5 uM, Number of replicates 2.0, Standard deviation 4.119087369296993 %) is -4.56%; the inhibition (PRVABC59, Concentration 99.01 uM, Number of replicates 2.0, Standard deviation 4.9173903211796555 %) was -2.38%; the inhibition (PRVABC59, Concentration 198.0 uM, Number of replicates 2.0, Standard deviation 5.05462855212604 %) came out at 1.33%.
Regarding `CC(F)(F)c1cc(C(=O)N2CC(NC(=O)c3ccc4[nH]ncc4c3Cl)C2)[nH]n1`, the inhibition by setting is: (PRVABC59, Concentration 49.5 uM, Number of replicates 2.0, Standard deviation 3.1504116407209857 %) 1.63%; (PRVABC59, Concentration 99.01 uM, Number of replicates 2.0, Standard deviation 2.686658613347066 %) 4.52%; (PRVABC59, Concentration 198.0 uM, Number of replicates 2.0, Standard deviation 2.1995883899435253 %) 9.51%.
Regarding `CS(=O)(=O)c1ccc(N2CCN(C(=O)c3cc(Cl)ccc3NS(=O)(=O)c3ccc(Oc4ccccc4Cl)cc3)CC2)c([N+](=O)[O-])c1`, the inhibition under setting [2] was found to be 18.3%.
Turning to `FC(F)c1ncc(CNCc2nnc3ccccn23)s1`, the inhibition is, setting by setting: (PRVABC59, Concentration 49.5 uM, Number of replicates 2.0, Standard deviation 0.09533128229721503 %) -3.45%; (PRVABC59, Concentration 99.01 uM, Number of replicates 2.0, Standard deviation 0.8184107075450271 %) -3.97%; (PRVABC59, Concentration 198.0 uM, Number of replicates 2.0, Standard deviation 0.9784952277826214 %) -4.65%.
As to `Cc1c(C(=O)NCc2nc(CN(C)C)cs2)cc(C2CC2)n1C`, the inhibition (PRVABC59, Concentration 49.5 uM, Number of replicates 2.0, Standard deviation 3.07522903867604 %) is -4.12%; the inhibition (PRVABC59, Concentration 99.01 uM, Number of replicates 2.0, Standard deviation 3.6541467701725825 %) is -4.78%; the inhibition (PRVABC59, Concentration 198.0 uM, Number of replicates 2.0, Standard deviation 2.017506755118519 %) was -4.01%.
Turning to `C[C@H](NC(=O)C1CCN(c2ccc(C=O)cc2)CC1)c1c(F)cccc1F`, the inhibition under setting [3] is 27.1%.
Regarding `O=Cc1ccc(N2CCC(C(=O)Nc3cccnc3Br)CC2)cc1`, the inhibition under setting [1] came to 23.3%.
Consider `C#CCN(Cc1ccccc1Cl)C(=O)C1CCN(c2ccc(C=O)cc2)CC1`, for which, under setting [1], the inhibition was 26.1%.
For the compound `O=C(Nc1cccc(C(F)(F)F)c1F)c1cc(Cl)ccc1NS(=O)(=O)c1ccc(Oc2ccccc2Cl)cc1`, under setting [2], the inhibition worked out at 25.4%.
For `CC(C)NC(=O)CN1CCN(C(=O)C2CCN(c3ccc(C=O)cc3)CC2)CC1`, the inhibition under setting [1] was 18.8%.
On to `O=Cc1ccc(N2CCC(C(=O)Nc3cc(Cl)cnc3Br)CC2)cc1`, for which the inhibition under setting [1] came to 21.1%.
Consider `Cc1cc(CO)c2cccc(NC(=O)CN3CCOCC3)c2n1`, for which the inhibition was determined as 3.67% (PRVABC59, Concentration 49.95 uM, Number of replicates 2.0, Standard deviation 2.433800281579898 %) and 12% (PRVABC59, Concentration 99.9 uM, Number of replicates 2.0, Standard deviation 1.6509696063729793 %).
On to `Cc1nc(CNC(=O)C2CCN(c3ccc(C=O)cc3)CC2)nc2c1CCCC2`, for which the inhibition under setting [3] was 21.2%.
In the case of `CCCN(C(=O)c1cc(Cl)ccc1NS(=O)(=O)c1ccc(Oc2ccccc2Cl)cc1)[C@@H](C)c1ccccc1`, the inhibition under setting [2] worked out at 21.6%.
